Assay results from PubChem BioAssay AID463173 (ICCB-Longwood Screening Facility, Harvard Medical School, 2010).
About 1,700 (3.3%) of roughly 52,000 compounds were called active. Rule as the data show it: active = survival mostly below about 52% (no sharp cut-off); inactive = mostly above about 56%. Some of the results follow.

What follows are compounds tested on Wild type (assay: S. aureus survival, RN4220 and DeltatarO strains – OD600, teichoic acid synthesis inhibitors, primary screen (AID 463173)). Conditions: S. aureus RN4220 wild type/DeltatarO growth, OD600, 18 h, stronger effect = lower value, screened at 18.75 µg/mL (by protocol).

Compound | survival
O=C(C1CCC(Cn2c(=O)c3sccc3n(Cc3ccccc3)c2=O)CC1)N1CCOCC1 (stereo not drawn) | inactive: 95%
O=C(Nc1ccccc1F)c1ccc(Cn2nc(N3CCN(c4ccccc4)CC3)ccc2=O)o1 | inactive: 75%
COc1cc(OC)c(NC(=O)N2CCc3c([nH]c4ccccc34)C2c2ccccc2F)cc1Cl (stereo not drawn) | inactive: 77%
Cc1cc(C)c(NC(=O)CN2C(=O)c3cccnc3Sc3ccccc32)c(C)c1 | inactive: 84%
O=C(CCC(=O)N1CC2CCCN2c2ccccc21)NCc1ccc(F)cc1 (stereo not drawn) | active: -2%
CCc1cc(C(=O)Nc2c(C)nn(Cc3ccccc3Cl)c2C)no1 | inactive: 64%
O=S(=O)(c1ccc(F)cc1)N(CC(O)Cn1c2ccccc2c2ccccc21)c1ccccc1 (stereo not drawn) | inactive: 63%
COc1ccc(C(=O)NCC(c2ccc3c(c2)OCO3)N2CCN(C)CC2)cc1 (stereo not drawn) | inactive: 60%
O=C(c1ccco1)N1CCCN(C(=O)c2ccco2)CC1 | inactive: 102%
CCOc1ccc(CCNC(=O)c2nnc(Cc3ccc(Cl)cc3Cl)o2)cc1OCC | inactive: 88%
COc1cc(OC)c(N(C)C(=O)c2c(C)oc3ncnc(N4CCCCC4)c23)cc1Cl | inactive: 64%
CCOc1ccc2nc(N3CCN(C(=O)c4ccco4)CC3)sc2c1 | inactive: 67%
CC(/C=N/NC(=O)c1ccco1)=C\c1ccco1 | inactive: 122%
Cc1ccc2c(=O)cc(C(=O)NCc3ccccc3)oc2c1 | inactive: 82%
COc1ccc(CNC(=O)C2CCCN(S(=O)(=O)c3ccc4c(ccn4C)c3)C2)c(OC)c1 (stereo not drawn) | inactive: 19%
CCOC(=O)c1cc2c(=O)n3ccccc3nc2n(CC2CCCO2)c1=NC(=O)c1ccccc1C (stereo not drawn) | inactive: 60%
CCn1cc(/C=C(\NC(=O)c2ccc(C)cc2)C(=O)NCCCn2ccnc2)c2ccccc21 | inactive: 96%
COc1ccc(NC(C)=O)cc1NC(=O)C1(c2cccs2)CCOCC1 | inactive: 71%
Cc1cc(C)cc(-n2c(SCC(=O)N3CCC(C)CC3)nc3c([nH]c4ccccc43)c2=O)c1 | active: -1%
Cc1ccc(C)c(N2CCN(C(=O)Cc3c(C(=O)O)c(C)cn3C)CC2)c1 | inactive: 75%
CCc1ccc(-n2nc(CO)c(C(=O)NCCc3ccccc3)n2)cc1 | inactive: 87%
O=C(CSc1nc2c([nH]c3ccccc32)c(=O)n1-c1ccc(F)cc1)N1CCc2ccccc21 | inactive: 87%

Compound | survival
COc1cccc(C(=O)N2CCCCC2CCN2CCCCC2)c1 (stereo not drawn) | inactive: 94%
CC1CCN(S(=O)(=O)c2ccccc2)CC1 | inactive: 108%
Cc1oc(-c2ccccc2F)nc1CS(=O)CC(=O)NC(C)C (stereo not drawn) | inactive: 82%
Cc1cccc(Cn2c(CNS(=O)(=O)c3ccc(C(C)C)cc3)nc3cccnc32)c1 | inactive: 78%
N#Cc1c(NC(=O)c2cccs2)sc2c1CCCCC2 | inactive: 96%
COc1ccc(OC)c(NC(=O)c2cccc3c2C(=O)N(C2CCCCC2)C3)c1 | inactive: 58%
CCOc1ccccc1NC(=O)c1c2c(nc3ccccc13)C(=O)N(C1CCCCC1)C2 | inactive: 47%
COc1ccc(-c2nc3n(n2)C(c2ccccc2OC)C(C(=O)Nc2cccnc2)=C(C)N3)cc1 (stereo not drawn) | inactive: 76%
O=C(C1CCC(CNS(=O)(=O)c2ccc(Br)s2)CC1)N1CCN(c2ccc(F)cc2)CC1 (stereo not drawn) | inactive: 91%
CCc1ccccc1NC(=O)CC1NCCNC1=O (stereo not drawn) | inactive: 87%
CCOc1ccc(C(=O)Nc2ccc3oc(-c4ccc(C)cc4C)nc3c2)cc1Br | inactive: 67%
C=CCNC(=O)C1CCN(S(=O)(=O)c2cccc(C(F)(F)F)c2)CC1 | inactive: 100%
CCOc1ccc(NC(=O)Cn2c(=O)n(CCCCC(=O)NCCc3ccc(Cl)cc3)c(=O)c3ccccc32)cc1 | inactive: 89%
CCC1CN(C(=O)N2CCC(C(=O)N3CCN(c4ccccc4)CC3)CC2)c2ccccc2O1 (stereo not drawn) | inactive: 83%
Cc1ccc(-n2c(=O)c3ccc(C(=O)NCc4ccco4)cc3n(CC(=O)Nc3ccc(C)c(F)c3)c2=O)cc1 | inactive: 71%
COc1ccc(CNC(=O)c2ccc3c(c2)nc2n3CCCCC2)cc1 | inactive: 82%
Cc1ccc(NS(=O)(=O)c2ccc3c(c2)N(C)C(=O)CC(=O)N3C)cc1Cl | inactive: 71%
N#CCCCN1C(=O)C(=C(C#N)C#N)c2ccccc21 | inactive: 109%
O=S(=O)(NCC(c1cccs1)S(=O)(=O)c1ccccc1)c1ccccc1 (stereo not drawn) | inactive: 82%
CCOc1ccc(-n2c(SCC(=O)NCc3ccccc3)nc3n[nH]c(C)c3c2=N)cc1 | inactive: 134%
CCOC(=O)N1CCc2c(sc(NCc3ccc(N(CC)CC)cc3)c2C(=O)Nc2cc(OC)ccc2OC)C1 | inactive: 68%
Cc1cc(C)n(C(C)CC(=O)Nc2ccc(Cl)cc2C)n1 (stereo not drawn) | inactive: 83%

Compound | survival
CC1Cc2cc(S(=O)(=O)CCC(=O)Nc3ccccc3F)ccc2N1C(=O)C1CC1 (stereo not drawn) | inactive: 73%
COc1cccc(CN2C(=O)C3(SCC(=O)N3c3ccc(C)c(Cl)c3)c3ccccc32)c1 (stereo not drawn) | inactive: 64%
CNC(=S)N1CCN(c2ccccc2F)CC1 | inactive: 111%
CCOc1ccc(Sc2cc(C(=O)NCc3ccc(C)cc3)c3ccccc3n2)cc1 | inactive: 95%
COCCCn1c(=N)c(C(=O)NC2CCCC2)cc2c(=O)n3cccc(C)c3nc21 | inactive: 121%
CCOc1ccccc1NS(=O)(=O)c1cc2[nH]c(=O)c(=O)[nH]c2cc1C | inactive: 78%
COc1ccc(Cn2ccc3nc(C)c(C(=O)Nc4cc(OC)c(OC)c(OC)c4)cc3c2=O)cc1 | inactive: 124%
Cc1cccc(C(=O)n2nc(C)c(S(=O)(=O)N3CCOCC3)c2C)c1 | inactive: 89%
CCCCC(=O)N1CCc2cc(OC)c(OC)cc2C1COc1ccc(C(=O)OCC)cc1 (stereo not drawn) | inactive: 65%
COC(=O)c1scc(-c2ccc(C)cc2)c1S(=O)(=O)N1CCN(c2ccc(F)cc2)CC1 | active: -6%
Nc1c(C(=O)NCc2cccs2)nnn1CC(=O)Nc1cccc(F)c1 | inactive: 101%
Cc1cc(C)cc(-n2ccn(CC(=O)c3ccc(F)cc3)c(=O)c2=O)c1 | inactive: 114%
O=C(NC1CCCCC1)c1ccc(CSc2nc3cccnc3n2Cc2cccc(F)c2)cc1 | inactive: 88%
CCC1CCCCN1C(=O)c1c[nH]c2ccc(S(=O)(=O)Nc3cccc(OC)c3)cc2c1=O (stereo not drawn) | inactive: 65%
O=C(NCc1ccco1)c1ccc2c(c1)N(Cc1ccccc1)C(=O)c1ccccc1S2 | inactive: 82%
Cc1cc(C)c(S(=O)(=O)NCCc2sc3nc(-c4ccc(F)cc4)nn3c2C)c(C)c1 | inactive: 63%
COC(=O)c1ccc(CSc2c(C(C)C)cnc3c2c(=O)n(C)c(=O)n3C)cc1 | inactive: 73%
CCOc1ccc(NC(=O)CCc2c(C)nc3cc(-c4ccccc4OC)nn3c2C)cc1 | inactive: 76%
O=C(c1ccc(CS(=O)(=O)c2ccc(Br)cc2)o1)N1CCN(c2ccc(F)cc2)CC1 | inactive: 126%
Cc1ccc(NC(=O)c2sc3ncnc(N(C)C4CCCCC4)c3c2C)c(C)c1 | inactive: 74%
O=C(O)c1ccc(NS(=O)(=O)c2ccc(Cl)c(C(=O)Nc3ccccc3)c2)cc1 | inactive: 74%
Cc1c(NC(=O)Nc2ccc(Cl)c(Cl)c2)sc2nc3n(c(=O)c12)CCC(C)CC3 (stereo not drawn) | inactive: 88%

Compound | survival
Cc1ccc(N(C)S(=O)(=O)c2ccc3[nH]c(=O)ccc3c2)cc1 | inactive: 77%
O=C(Nc1nc2n(n1)C(c1ccc(F)cc1)C=C(c1ccc(Cl)cc1)N2)c1ccc([N+](=O)[O-])cc1 (stereo not drawn) | inactive: 48%
N#C/C(=C\c1ccc(OCc2ccc(Cl)cc2Cl)cc1)c1nc2ccccc2[nH]1 | inactive: 142%
Cc1oc2c(cc(NS(=O)(=O)c3ccc(C(C)C)cc3)c3ccccc32)c1C(=O)OCc1ccccc1 | inactive: 105%
Cc1cccc(C2=Nc3ccccc3N=C(c3cc(Cl)ccc3O)C2)c1 | inactive: 34%
COc1ccc(OC)c(CNC(=O)c2cc3c(Cl)nc4ccccc4c3s2)c1 | inactive: 75%
Cc1cccc(NC(=O)/C(C#N)=C/c2ccco2)c1 | inactive: 73%
CCCNC(=O)Cn1nc(-c2ccc(OC)cc2)c2cnc3ccc(F)cc3c21 | inactive: 73%
CC(=O)Nc1c(C(=O)O)oc2ccc(Cl)cc12 | inactive: 103%
O=C(Nc1cccc(Br)c1)N1CCN2CCCCC2C1 (stereo not drawn) | inactive: 88%
COc1ccccc1CC(=O)Nc1ccc2nc(Nc3cccc(C(F)(F)F)c3)cc(C)c2c1 | inactive: 81%
CCOc1ccc(-n2c(C)nc3cc(C(=O)NC4CCCC4)ccc32)cc1 | inactive: 67%
COc1ccc(CNC(=O)Cn2c(=O)n3nc(-c4ccc(OC)cc4)nc3c3ccccc32)cc1 | inactive: 76%
O=C(COc1ccc(S(=O)(=O)NCc2ccccc2)cc1Cl)N1CCOCC1 | inactive: 112%
CC(=O)c1cccc(NS(=O)(=O)c2ccc3[nH]c4c(c3c2)CCCCC4)c1 | inactive: 112%
Cc1cn2c(=O)c(S(=O)(=O)Nc3ccc(OC(F)(F)F)cc3)c(C)nc2s1 | inactive: 114%
COc1ccc(NC(=O)C(c2ccccc2)N(C)C(=O)/C=C\c2ccc3c(c2)OCO3)cc1 (stereo not drawn) | inactive: 80%
COc1ccc(-c2noc(CSc3nnc(C)n3-c3ccc(F)cc3)n2)cc1 | inactive: 84%
COc1ccc(C(CC(=O)Nc2cc(Cl)c(OC)cc2OC)N2Cc3ccccc3C2=O)cc1 (stereo not drawn) | active: -3%
COc1ccc(-c2c(C)nn3c(C(F)(F)F)cc(-c4ccc(C)cc4)nc23)cc1 | inactive: 93%
Cn1c(COc2ccccc2Br)nc2ccccc21 | inactive: 106%
CCOc1ccc(C(=O)Nc2ccc3nc(Nc4cccc(C(F)(F)F)c4)cc(C)c3c2)cc1OCC | inactive: 88%
